The values that follow come from the RNAGym collection of RNA variant scans (doi:10.1093/nar/gkz1192).

Read counts are not given, so values of variants with three or more changes are uncertain.

B1: CPEB3 Ribozyme (parent)
chain: UAACAGGGGGCCACAGCAGAAGCGUUCACGUCGCAGCCCCUGUCAGAUUCUGGUGAAUCUGCGAAUUCUGCUGUAUAUCUC

Variants of B1 are the subject of this data set. Description: self-cleavage, relative activity (ratio to wild type); higher = more cleavage; in vitro, sequencing. In short, it runs like this: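 Relative activity was defined as the cleaved/total read fraction for a variant divided by the same fraction for the unmutated ribozyme. CPEB3 self-cleaving ribozyme libraries were made by rounds of error-prone PCR, barcoded, and transcribed in vitro with T7 RNA polymerase for 5 hours at 37°C, and cleavage ran through transcription plus a 15 min DNase I step before EDTA. Illumina sequencing of template-switched reverse transcripts gave the reads, and DNA sequencing mapped the barcodes. Averages come from three batches, using variants with at least 5 reads.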
G10C U26C A64G A65G: the self-cleavage was found to be 0.23. Turning to G9A G53A G61A A65G U72C, the self-cleavage turned out to be 0.17. The same measure for G10U A15G U31C C59A U72C: 0.05. For G9U A13U A57U, the self-cleavage is 0.17. Consider G10C G22A U31C G33A C62U U72C A75G, for which the self-cleavage was 0.05.

For the variant G9U A20G A28G U54A U69A, the self-cleavage is 0.04. Regarding G9A U31G U66C, the self-cleavage was 0.05. For G10C A20U U41A U43A U49C U51A, the self-cleavage was determined as 0.14. With G9A U41C U54A U60A U74G A75U, the self-cleavage was 0.09. With G10C A13G U41A C62A the figure was 0.07; with G9U C11U U26C C34G U78C, 0.05. Take G10A U25C G33A U41A: the self-cleavage was determined as 0.06. As to G9C A15G U49C G63U, the self-cleavage was found to be 0.42. As to G10A A65G U67C U69A, the self-cleavage was found to be 0.11. Regarding G10A C29A U41G U72C, the self-cleavage was found to be 0.18. For the variant G10A U41A U69A U80C, the self-cleavage came to 0.16. With G10A A20U U26A A45U, the self-cleavage is 0.15. In the case of C11A A15G G16A A65G, the self-cleavage came to 0.21.

As for G9C U43C U60A G63A A64G, the self-cleavage came out at 0.06. Turning to G9U U31A U41C G42C A57G, the self-cleavage was determined as 0.28. With G10A A13U U41C U58C the figure was 0.09. For G10U U54A U80C, the self-cleavage came to 0.2.

G10A U25C U74A: the self-cleavage came to 0.19. Turning to G9U C12G A18G C32U, the self-cleavage amounted to 0.05. For the variant G9U A20G U51A U80C, the self-cleavage was 0.19. As for G9U A47G A77U, the self-cleavage was 0.1. On to G9A U43A A45U C79A, for which the self-cleavage was found to be 0.05. G9A G24C A35G U49G U51C U78C: the self-cleavage is 0.13. For the variant G10A A15G C40U, the self-cleavage is 0.07.

Consider G9A C27A A35G U51C U54C U80C, for which the self-cleavage is 0.07.

For the variant G10C C50U A65G, the self-cleavage came to 0.06. With G9U A15U A28G U66C U80C the figure was 0.16; with G9U U54C U72C U78A, 0.24; with G9A A35G U41C U80C, 1.05.

With G10U A35U U41A A57G A65G U78A, the self-cleavage stood at 0.02.

As for G9A A28C A45G U48C C62U U80C, the self-cleavage was found to be 0.12.

As for G10A C29U A45G A47U A56C, the self-cleavage was determined as 0.09. With G10A A20G A28G A56G U58C A64U, the self-cleavage is 0.04. For the variant G9C A21G A64G U66C, the self-cleavage is 0.22. As to G9U A13U U60C U72G U76C, the self-cleavage came to 0.04. For the variant G10A U26C U69C, the self-cleavage is 0.06. Turning to G10A A13G A57G U60C U80C, the self-cleavage is 0.06. Take C11A A20C A28U U31C A47U: the self-cleavage was determined as 0.05. Consider G9C G36A A47C G73A C79U U80A, for which the self-cleavage was determined as 0.35.

Consider G9A U26A C44U G46A U49C, for which the self-cleavage is 0.15. With G10A A65U U69C U74C the figure was 0.09; with G9A C17U C29G, 0.18; with C11A A20G G24A U25C, 0.06. In the case of G9U U25C U76C U80A, the self-cleavage worked out at 0.12.

Take G10A A15G A21G U26A U41C U74C U78C: the self-cleavage was 0.19.

Take G10A C12A U41C C50A U54C U66C: the self-cleavage came to 0.22. For the variant G9U A20G U31G G42U U49A A56G C81U, the self-cleavage came to 0. For G10A U25C C32A U41A G55C U72G U80C, the self-cleavage is 0.04. In the case of G9A G10C U43C A64G A75G, the self-cleavage was found to be 0.23. With G10A A18G A20U U26C C37U A56G U80C the figure was 0.03. With G9A A28U C29G U31C U54A A75G U78G the figure was 0.03. With G10A A21G U78A the figure was 0.24; with G9A C23G A77G, 0.28; with G10C C12A A13G U54C U67C, 0.2. For G9U C23U U26C U66A U74A, the self-cleavage was 0.09.

For the variant G10A C12U G16A U60A A64G U66C, the self-cleavage worked out at 0.05. As for G10A G53C A65G U80C, the self-cleavage amounted to 0.04. Consider G10A U67C U69C, for which the self-cleavage was determined as 0.09. As to G10A A28G U41A A64G U67C, the self-cleavage stood at 0.13. On to G9U A20G A45G U80C, for which the self-cleavage came out at 0.03. Regarding G9A C17U U26C C29G, the self-cleavage came out at 0.04. As to C11A A18G A57G, the self-cleavage amounted to 0.32.

For G10C A21G U41A A56G, the self-cleavage turned out to be 0.07. In the case of G9A U43G U72C, the self-cleavage was found to be 0.08. On to G9U U58A A75G, for which the self-cleavage was 0.06.

In the case of G9A C38U U72C A77G, the self-cleavage was 1.09.

Consider G9A C32U U48C A56U, for which the self-cleavage was determined as 0.01.

Consider G9U A15U C23U, for which the self-cleavage was determined as 0.31. With G9C U25C U78A, the self-cleavage was determined as 0.48.

With G9A C11G U80C, the self-cleavage is 0.07. The same measure for G10A A57G G70U: 0.06. Regarding G10A A21G A64G, the self-cleavage amounted to 0.06. With G10A A28G G53U the figure was 0.08; with G10U A45G A64G, 0.45.

In the case of G10C A20U G53A, the self-cleavage came to 0.11. With G9U A18U U25C U26G U43C U49C, the self-cleavage stood at 0.06. Regarding G9A U25C C29G A45U U74A A77G, the self-cleavage is 0.04. For G9A A21G C50U U54C, the self-cleavage is 0.06. With G10A A15G C71U U78A the figure was 0.07.
